Over roughly 110,000 compounds, “z-score” has its median near -0.1; the highest 2% begin near 2. The list shows a part of the results.
Each molecule was assayed against Metabotropic glutamate receptor 8 (Rattus norvegicus) (UniProt P70579) (assay: rat mGluR8 modulators via GIRK flux, primary screen, cell-based, thallium flux, HTS (AID 488969)). Conditions: HEK293 rat mGluR8, GIRK (G protein-gated inwardly rectifying potassium channel) thallium flux, FluoZin2; at 10 µM; stronger effect = higher value; submaximal glutamate (EC20) added with thallium.
Sequence of UniProt P70579 (P70579 whole entry, looked up): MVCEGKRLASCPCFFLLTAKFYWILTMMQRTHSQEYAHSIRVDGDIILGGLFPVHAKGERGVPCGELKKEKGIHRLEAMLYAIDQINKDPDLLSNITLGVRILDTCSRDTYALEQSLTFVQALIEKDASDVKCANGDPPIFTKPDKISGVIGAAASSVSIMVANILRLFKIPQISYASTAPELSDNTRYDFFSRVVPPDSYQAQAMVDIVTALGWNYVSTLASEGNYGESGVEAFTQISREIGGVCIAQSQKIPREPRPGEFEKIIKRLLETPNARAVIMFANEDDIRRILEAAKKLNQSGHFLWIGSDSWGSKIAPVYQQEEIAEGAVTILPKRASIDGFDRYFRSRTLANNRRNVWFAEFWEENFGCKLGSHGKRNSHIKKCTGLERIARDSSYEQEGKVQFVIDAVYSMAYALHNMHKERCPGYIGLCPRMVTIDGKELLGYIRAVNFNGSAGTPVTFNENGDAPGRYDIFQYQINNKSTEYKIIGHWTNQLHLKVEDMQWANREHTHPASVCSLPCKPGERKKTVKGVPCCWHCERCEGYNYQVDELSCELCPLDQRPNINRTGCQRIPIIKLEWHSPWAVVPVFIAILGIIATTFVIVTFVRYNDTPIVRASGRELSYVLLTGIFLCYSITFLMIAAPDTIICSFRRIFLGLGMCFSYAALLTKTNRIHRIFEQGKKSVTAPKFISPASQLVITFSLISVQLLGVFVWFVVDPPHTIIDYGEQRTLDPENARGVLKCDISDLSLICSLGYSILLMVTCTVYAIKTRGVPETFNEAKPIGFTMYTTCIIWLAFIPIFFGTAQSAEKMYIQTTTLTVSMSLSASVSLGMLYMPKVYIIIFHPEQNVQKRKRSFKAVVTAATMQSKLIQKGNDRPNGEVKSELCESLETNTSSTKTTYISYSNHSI

Compound | z-score
COc1ccc(/C=N/NC(=O)CCCCCNC(=O)c2ccccc2)cc1 | -0.242
CCCC(=O)Nc1ccccc1NC(=O)CCC | 0.00845
CC(C)CNC(=O)c1ccccc1SCC(=O)NC12CC3CC(CC(C3)C1)C2 | -0.295
COc1ccc(CCNC(=O)COc2ccc(-c3ccccc3)cc2)cc1OC | -0.348
CCOC(=O)C1CCCN(C(=O)c2sc3nc(C)nc(N(CC)CC)c3c2C)C1 (stereo not given) | -0.328
Brc1cnc(N2CCCCC2)nc1N1CCOCC1 | -0.468
CCCCNC(=O)n1c(=O)oc2ccc(Cl)cc21 | -0.0975
CCN(CC)S(=O)(=O)c1ccc(OC)c(NS(=O)(=O)c2ccc(F)cc2)c1 | -0.405
O=S(=O)(Nc1ccc(F)cc1)c1ccc(NC(=S)Nc2ccccc2)cc1 | -0.128
Cc1cc(C)cc(N(C(=O)CNS(=O)(=O)c2ccccc2)C(C(=O)NCc2ccccc2)c2ccc(C)o2)c1 (stereo not given) | -0.187
CC(C)(C)C(=O)c1cnc(Nc2ccccc2)s1 | 0.112
Cc1ccc(S(=O)(=O)N2CCN(S(=O)(=O)N(C)C)CC2)cc1 | 0.217
O=C1c2ccccc2C(=O)C1Cc1cccc2ccccc12 | -0.551
CCCC1CC(C)(C(=O)CSc2n[nH]c(-c3ccccc3)n2)OC1=O (stereo not given) | -0.944
CCOC(=O)/C(C#N)=C1/SC(CCO)C(=O)N1c1ccccc1 (stereo not given) | -0.202
O=C(CCC(=O)c1cccs1)NC(c1ccccc1)c1ccccc1 | -0.119
O=C(c1ccc(Cl)cc1)c1ccc(OCC(O)CN2CCOCC2)cc1 (stereo not given) | 0.402
CC(C)CCN1CC(C(=O)NCc2ccccc2)CC1=O (stereo not given) | -0.0931
O=C(COC(=O)CCc1c[nH]c2ccccc12)NCc1ccccc1 | -0.145
Cc1csc(=S)n1-c1ccccc1 | -0.452
O=C1CCC([N+](=O)[O-])C(c2ccc(Cl)cc2)N1 (stereo not given) | -0.101
COc1ccc(Cc2nnc(SCC(=O)Nc3nc(C)cs3)o2)cc1 | 0.423

Compound | z-score
O=C(NCc1ccccc1)c1ccc2nc(-c3ccco3)c(-c3ccco3)nc2c1 | -0.000879
Cc1ccc(-c2nnc(-c3ccccc3)o2)cc1Br | -0.207
N=c1c(C(=O)NCc2ccc(F)cc2)cc2c(=O)n3ccccc3nc2n1Cc1cccnc1 | -0.514
CCCOc1ccc(/C=N/NC(=O)C(C)Sc2ccccn2)cc1OCC (stereo not given) | -0.455
C=CCn1c(SCCC(=O)O)nnc1-c1cccs1 | 0.352
CC1CCc2c(sc(NC(=O)COC(=O)c3ccccc3NCc3ccco3)c2C#N)C1 (stereo not given) | -0.152
COc1cccc(N(C(=O)c2ccco2)c2nc(-c3sc(NC(=O)c4ccco4)nc3C)cs2)c1 | 0.177
NC(=O)c1nsc(C(=O)N(CCc2ccccc2)C(C(=O)NC2CCCC2)c2ccco2)c1N (stereo not given) | -0.644
CCc1cccc(CC)c1NC(=O)c1cccc(N)c1 | 0.18
O=C(Nc1cccc(S(=O)(=O)Nc2ccccc2Cl)c1)c1ccc(N2CCCC2)c([N+](=O)[O-])c1 | -0.269
Cc1ccc2nc(C)c(C(=O)N/N=C/c3cccs3)n2c1 | 0.0322
CN(C)S(=O)(=O)Oc1ccccc1C(=O)Nc1cccc(C(F)(F)F)c1 | -0.828
CCOc1ccc(/C=N/OCC(=O)NC(c2ccccc2)c2ccccc2)cc1 | -0.0375
COC(=O)c1cc(OC)c(OC)cc1NC(=O)c1c(C)noc1C | -0.196
Cc1cc2nc(Sc3c([N+](=O)[O-])nc(C)n3Cc3ccccc3)[nH]c2cc1C | -0.172
COc1ccc(CC(=O)Nc2c3c(nn2-c2cccc(C)c2C)CS(=O)C3)cc1 (stereo not given) | 0.448
Cc1ccn2c(NC(=O)c3cccs3)c(-c3ccccc3)nc2c1 | -0.235
Cc1ccc(/C=N/Nc2nc3ccccc3[nH]2)s1 | -1.02
O=C(OCC(=O)c1c[nH]c2ccccc12)c1ccco1 | 0.55
CCc1ccc(/C=C2\Oc3cc(OC(=O)N4CCOCC4)ccc3C2=O)cc1 | -0.203
Cc1nonc1OCC(C)(COc1nonc1C)NC(=O)c1ccccc1 | -0.133
CCOCc1cnc(C)nc1NCC(=O)c1c(C)n(C)c2ccc(OC)cc12 | -0.538

Compound | z-score
COCCCNC(=S)Nc1ccccc1C | -0.354
CC(C)Cc1cc(C(=O)O)n[nH]1 | -0.0715
Cc1ccc([N+](=O)[O-])cc1S(=O)(=O)N1CCCC1 | 0.862
COC(=O)COc1ccc(S(=O)(=O)NC2CCCCCC2)cc1 | 0.0304
Cc1cc(Cl)c(S(=O)(=O)Nc2ccc3c(c2)OCCO3)cc1OCC(=O)NC1CCCCC1 | -0.0409
CCOC(=O)N1CCC(=NNC(=O)COc2cccc(C)c2)CC1 | -0.205
CN(CCC#N)C(=O)Cn1nc(Cc2ccncc2)c2ccccc2c1=O | 1.89
COc1cc(/C=N/NC(=O)CN(Cc2ccco2)S(=O)(=O)c2ccccc2)ccc1O | -0.0377
COc1ccc(OCC(=O)Nn2c(-c3ccc(OC)cc3)nc3ccccc3c2=O)cc1 | -0.171
Cc1nn(S(=O)(=O)c2ccccc2)c(C)c1Sc1ccc([N+](=O)[O-])cc1 | 0.407
COc1ccc(NC(=O)Cc2nnc(SCC(=O)Nc3cc(C)ccc3OC)n2C)cc1 | 0.127
CC1CCCN(CCCCOc2cccc(Br)c2)C1 (stereo not given) | 0.299
Cc1ccc2nc(Cl)c(CN(Cc3cccs3)C(=O)C3CC3)cc2c1 | -0.39
CCOc1ccc(C(=O)Nc2ccccc2C#N)cc1[N+](=O)[O-] | -0.246
O=C(O)CCn1c(=O)c2ccccc2c2ccccc2c1=O | 0.43
COc1ccccc1N(CC(=O)NCc1ccccc1)S(C)(=O)=O | -0.0906
O=C(COC(=O)C1CCN(S(=O)(=O)c2cccs2)CC1)c1cc2ccccc2o1 | -0.255
C=C(C)Cn1c(SCC(=O)O)nnc1-c1ccccc1 | 0.335
O=C1CSc2ccc(C(=O)NCCC3=CCCCC3)cc2N1 | -0.076
COc1cc(C2SCC(=O)N2c2nnc(C34CC5CC(CC(C5)C3)C4)s2)cc(OC)c1OC (stereo not given) | -0.027
CC(C(N)=O)N1C(=O)c2cccc3cccc1c23 (stereo not given) | -0.394
O=C(CCc1nc2ccccc2c(=O)[nH]1)N1CCN(C/C=C/c2ccccc2)CC1 | -0.202

Compound | z-score
CC(=O)c1cccc(N=Nc2c(C)[nH]c3ccccc23)c1 | -0.164
COc1nc(C)nc2c1ccc1ccccc12 | -0.195
O=C1CC(SCCc2nc3ccccc3[nH]2)C(=O)N1c1ccc(F)cc1 (stereo not given) | -0.0844
COc1ccc(C2C/C(=N\O)C(C)(C)O2)cc1 (stereo not given) | -0.0235
O=C(CN1C(=O)c2ccccc2C1=O)NCC(=O)OCC(=O)c1ccc(Br)cc1 | -0.128
O=C(c1cc(C(=O)NCCc2ccccc2)c(=O)n(CCc2ccccc2)c1)c1cc(Cl)ccc1O | 0.734
COC(=O)/C=c1/s/c(=C(/C#N)C(=O)N2CCOCC2)n(-c2ccccc2)c1=O | 0.183
O=C(COc1ncnc2c(Cl)cc(Cl)cc12)Nc1cc([N+](=O)[O-])ccc1Cl | -0.283
O=C(N/N=C/c1ccccn1)C1CC1 | -0.192
O=C(c1ccccc1)N1CCN(Cc2cccc(Oc3ccccc3)c2)CC1 | -0.231
Cn1nc(OC(=O)Nc2ccc(F)cc2)cc1C(F)(F)F | -0.132
Cc1ccc(N=Cc2sc(O)c3ccccc23)cc1 | -0.16
O=C(/C=C/c1ccccc1)NNC(=O)c1cccc(Cl)c1 | 0.0372
Cc1cc(C(F)(F)F)nn1Cc1n[nH]c(=S)n1-c1ccc(F)cc1 | 1.08
O=C(CSc1nnc(CNC(=O)c2ccco2)o1)c1ccccc1 | 0.135
COCCN(CCOC)S(=O)(=O)c1ccc(C(=O)Nc2sc3c(c2C(N)=O)CCCCC3)cc1 | -0.439
COc1cc2c(cc1OC)CN(C(=S)Nc1ccccc1)CC2 | -0.147
COC(=O)C1CCN(c2ccc(C(N)=O)cc2[N+](=O)[O-])CC1 | -0.32
CCSCCOC(=O)C1=C(C)NC(=O)NC1c1cc(OC)ccc1OC (stereo not given) | -0.497
Cc1cc(C)cc(Oc2nc(-c3ccccc3)cc(C)c2S(C)(=O)=O)c1 | -0.13
Cc1cc(C)cc(N(CCC(=O)Nc2nnc(C3CC3)s2)S(=O)(=O)c2ccc(Cl)cc2)c1 | -0.0851
O=C(Nc1cccnc1)C1CCCN(S(=O)(=O)c2ccccc2)C1 (stereo not given) | -0.631

Compound | z-score
COc1ccc(C(=O)CSc2nncn2C)cc1 | -0.0383
CC(=O)c1c(N2CCOCC2)nc(=S)n(-c2ccc([N+](=O)[O-])cc2)c1C | 0.0619
COCCn1c(SCC(=O)Nc2sccc2C(N)=O)nc2cc(Cl)ccc2c1=O | -0.446
O=[N+]([O-])c1ccc(N/N=C/c2c[nH]c3ccccc23)cc1 | -0.323
CCC(C)NC(=O)Cn1cc2c(n1)CCC(C)C2 (stereo not given) | -0.283
COc1ccc(C(=O)Nn2c(SCC(=O)NC3CCCC3)nc3ccccc3c2=O)cc1 | 0.419
O=C(/C=C/c1cccc(F)c1)Nc1cc(S(=O)(=O)N2CCOCC2)ccc1N1CCCC1 | -0.109
O=C(CN1C2=NCCCN2c2ccccc21)c1cccs1 | -0.083
COc1ccc(/C=N\NC(=O)COc2ccccc2)c(C(=O)O)c1OC | -0.256
COc1ccc(C(=O)n2nc(-c3ccco3)nc2N)cc1 | -0.0115
Cn1c2ccccc2c2cc(C(=O)OCC(=O)N3CC(=O)Nc4ccccc43)sc21 | -1.33
O=C(/C=C/c1ccc(Cl)cc1)NC(=S)NN1CCCCC1c1cccnc1 (stereo not given) | 2.97
O=C(Oc1ccccc1N1C(=O)C2CCCCC2C1=O)c1ccc(Cl)cc1 (stereo not given) | -0.0317
COc1ccccc1C(=O)NC(=S)Nc1ccc(NC(=O)c2cccs2)cc1 | 0.853
Cc1ccnc(SCCn2c(N3CCOCC3)nc3c2c(=O)n(C)c(=O)n3C)n1 | 0.0114
CCCCNC(=O)C1C2C=CC(C2)C1C(=O)O (stereo not given) | -0.0934
CCNC(=S)Nc1ccc(Cl)c(C(F)(F)F)c1 | 0.39
COc1cc(C(=O)CSc2nncn2C)cc(OC)c1OC | -0.245
N#C/C(=C\c1ccc2c(c1)OCCO2)C(=O)NC1CCCCC1 | -0.000416
CSC1=C(C#N)C(c2ccccc2Cl)C(C(=O)c2cccs2)C(O)(C(F)(F)F)N1 (stereo not given) | -1.22
CCOc1ccc(S(=O)(=O)N(CC(=O)Nc2cc(C)on2)Cc2ccccc2Cl)cc1 | -1.72
COC(=O)c1ccc(CSc2nc3cc(Cl)ccc3o2)cc1 | -0.418
